Results on five molecules are retold here after US9157904B2, “Wnt antagonists and methods of treatment and screening” (OncoMed Pharmaceuticals, Inc., priority 2010, dated 2015).

The test system of data set [1] is C28 colon tumor. Put plainly: C28 colon tumor xenograft, FZD8-Fc variants (Example 17). Type of data set: in vivo, NOD/SCID mice. Conditions: C28 established tumors; 15 mg/kg i.p. twice a week; after three weeks of treatment. The protocol: (§1) Dissociated C28 colon tumor cells (10,000 cells) were injected subcutaneously into 6-8 week old male NOD/SCID mice. Tumors were allowed to grow for 56 days until they reached an average volume of 175 mm^3. The mice were randomized (n=10 per group) and treated with FZD8-Fc constructs 54F03, 54F23, 54F26, or a control antibody at a dose of 15 mg/kg twice a week. Administration of the FZD8-Fc variants and control antibody was performed via injection into the intraperitoneal cavity. Tumor growth was monitored and tumor volumes were measured with electronic calipers at the indicated time points. Data are expressed as mean±S.E.M.

The subject of data set [2] is canonical Wnt signaling pathway. Put plainly: Luciferase reporter assay in STF293 cells with Wnt3a-conditioned medium. Type of data set: cell-based. Conditions: blocking of Wnt3a-induced luciferase in STF293 cells; relative to reference standard set at 100%. The protocol:
The ability of the FZD8-Fc variants to block or inhibit activation of the Wnt signaling pathway was determined in vitro using a luciferase reporter assay. STF293 cells were cultured in DMEM supplemented with antibiotics and 10% FCS. The STF293 cells are stably transfected with a reporter vector containing seven copies of the TCF transcriptional response element linked to a promoter upstream of a firefly luciferase reporter gene. This construct measures the activity of the canonical Wnt signaling pathway. The cells were added to cultures plates at 10,000 cells per well. After an overnight incubation the FZD8-Fc variants or control mouse JAG1-Fc were added in combination with Wnt3a-conditioned medium. The FZD8-Fc variants and JAG1-Fc were used at concentrations of 20, 4, 0.8, 0.16, 0.03, 0.006, 0.0012, and 0.0003 ug/ml. The cells were incubated in 25% Wnt3A-conditioned medium that had been prepared from L cells that stably express Wnt3a. After overnight incubation (approximately 18 hrs), luciferase levels were measured using a Steady-Glo® luciferase assay kit (Promega, Madison, Wis.).
The blocking activity of the FZD8-Fc variants was determined and is presented in Table 3 as relative activity as compared to the same reference standard run in each assay which was set at 100%.
A general note: A reporter such as luciferase makes a cellular process visible.

The nature of data set [3]: Pharmacokinetics of FZD8-Fc variants in rats. Conditions: rat, tail vein, 10 mg/kg, plasma.
The subject of data set [4] is C28 colon tumor. Put plainly: C28 colon tumor xenograft, FZD8-Fc variants (Example 14). Type of data set: in vivo, NOD/SCID mice. Conditions: C28 established tumors; 15 mg/kg i.p. twice a week. The protocol: as §1, with “28” for “56”, “145” for “175”, “(n=9” for “(n=10”, “variants” for “constructs 54F03, 54F23, 54F26,”
The conditions of data set [5]: rat, in vivo, 10 mg/kg.
A short description of data set [6]: Pharmacokinetics of FZD8-Fc variants in cynomolgus monkeys. Conditions: monkey, IV bolus 30 mg/kg.
For data set [7], the system named is PN4 tumors. Put plainly: FACS for ESA, CD44 and CD201 on PN4 tumors treated with variants. Type of data set: in vivo, NOD/SCID mice. Conditions: vs control antibody. The protocol:
Pancreatic tumor cells from the tumor-bearing mice described above were harvested and minced into approximately 1 mm^3 fragments, followed by enzymatic digestion at 1 gram per 10 ml of 300 μg/ml collagenase and 200 U/ml DNase I for 2 hours at 37° C./5% CO2 with intermittent mixing with a 10 ml pipet to disperse cells. Digestion was stopped by adding an equal volume of FACS buffer (1× Hanks Buffered Saline Solution (HBSS), 2% heat-inactivated Fetal Calf Serum (FCS) and 2 mM HEPES pH 7.4). Cells were filtered through 40 μm nylon filters and collected by centrifugation at 150×g for 5 minutes. Red blood cells were lysed in a hypotonic buffer containing ammonium chloride for 2 minutes on ice, and the cells were washed again with excess FACS buffer, and resuspended with FACS buffer at 1×10^7 cells/ml.
The freshly prepared single cell suspensions were stained for 20 minutes on ice with biotinylated anti-mouse H-2Kd (clone SF1-1.1, Biolegend, San Diego, Calif.) at 5 μg/ml, biotinylated anti-mouse CD45 (30-F11, Biolegend) at […], and streptavidin-PerCP-Cy5.5 (eBioscience, San Diego, Calif.) at 1:200 dilution. Unbound antibody was removed by washing twice with 10 volume of FACS buffer. […]

Where [8] appears, read: individual animal, listed as FZD8-Fc 54F16, 30 mg/kg.
Where [9] appears, read: individual animal, listed as FZD8-Fc 54F15, 30 mg/kg.

“And” between values parts separate entries of the source, which are not always exact repeats. Equal values may be shown once. Read-outs that look alike come from different tables or passages of the source.

B1: 54F26: FZD8-Fc variant; SEQ ID NO:53 with signal sequence SEQ ID NO:71 (SEQ ID NO:75) (protein)
chain: MEWGYLLEVTSLLAALFLLQRSPIVHAASAKELACQEITVPLCKGIGYNYTYMPNQFNHDTQDEAGLEVHQFWPLVEIQCSPDLKFFLCSMYTPICLEDYKKPLPPCRSVCERAKAGCAPLMRQYGFAWPDRMRCDRLPEQGNPDTLCMDYNRTDLTT[omitted - human IgG1 Fc with changes]
modifications: FZD8-Fc variant 54F26 (with signal)
Consider B1, for which the “reduction of tumor growth as compared to control antibody” value in data set [1] was found to be 52%.

B2: 54F09: FZD8-Fc variant, IgG1 Fc; SEQ ID NO:46 (protein)
chain: ASAKELACQEITVPLCKGIGYNYTYMPNQFNHDTQDEAGLEVHQFWPLVEIQCSPDLKFFLCSMYTPICLEDYKKPLPPCRSVCERAKAGCAPLMRQYGFAWPDRMRCDRLPEQGNPDTLCMDYNRTDLTTAAPSPP[omitted - human IgG1 Fc]
modifications: FZD8-Fc variant 54F09
With B2, the “% Relative Activity” value in data set [2] was 156% and 157%. In addition, the t1/2 in hours in data set [3] was found to be 136 h. For the same molecule, in data set [4], the “reduction in tumor growth as compared to control antibody” value (shortened to “reduction in tumor growth”) is recorded as roughly 70%.

B3: 54F16: FZD8-Fc variant, IgG1 Fc; SEQ ID NO:50, native signal sequence (SEQ ID NO:52) (protein)
chain: ASAKELACQEITVPLCKGIGYNYTYMPNQFNHDTQDEAGLEVHQFWPLVEIQCSPDLKFFLCSMYTPICLEDYKKPLPPCRSVCERAKAGCAPLMRQYGFAWPDRMRCDRLPEQGNPDTLCMDYNRTDL[omitted - human IgG1 Fc with C220S (EU numbers) and a few adjoining residues]
modifications: FZD8-Fc variant 54F16, 54F17, 54F18, 54F23, 54F25, 54F27, 54F29, 54F31, and 54F34 (without predicted signal)
As for B3, the t1/2 in hours in data set [5] was 154 h. Besides, the “% Relative Activity” value in data set [2] came to 125%. Further, in data set [6] (Mean of two animals), the AUC0-last worked out at 32511.121 µg·h/mL and the “AUC0-∞” value was determined as 39460.17 µg·h/mL. In data set [6] (setting [8]), the AUC0-last is 29088.083 µg·h/mL and 35934.159 µg·h/mL; the “AUC0-∞” value was 35470.3956 µg·h/mL and 43449.9446 µg·h/mL. In addition, in data set [7], the “percentage of CD44^hi cells” value is “decreased the percentage of CD44^hi cells” and the “percentage of CD201^+CD44^+ cells” value is on record as “decreased the percentage of CD201^+CD44^+ cells”. In data set [4], the “reduction in tumor growth” value is recorded as roughly 70%.

B4: 54F23: FZD8-Fc variant with modified signal sequence; SEQ ID NO:50 (protein)
chain: ASAKELACQEITVPLCKGIGYNYTYMPNQFNHDTQDEAGLEVHQFWPLVEIQCSPDLKFFLCSMYTPICLEDYKKPLPPCRSVCERAKAGCAPLMRQYGFAWPDRMRCDRLPEQGNPDTLCMDYNRTDL[omitted - human IgG1 Fc with C220S (EU numbers) and a few adjoining residues]
modifications: modified signal sequence; FZD8-Fc variant 54F16, 54F17, 54F18, 54F23, 54F25, 54F27, 54F29, 54F31, and 54F34 (without predicted signal)
As to B4, in data set [1], the “reduction of tumor growth as compared to control antibody” value came out at 57%.

B5: 54F15: FZD8-Fc variant, IgG1 Fc; SEQ ID NO:48 (protein)
chain: ASAKELACQEITVPLCKGIGYNYTYMPNQFNHDTQDEAGLEVHQFWPLVEIQCSPDLKFFLCSMYTPICLEDYKKPLPPCRSVCERAKAGCAPLMRQYGFAWPDRMRCDRLPEQGNPDTLCMDYNRTDLTTAAP[omitted - human IgG1 Fc]
modifications: FZD8-Fc variant 54F15
In turn, B5 returned a t1/2 in hours in data set [5] of 109 h. In addition, the “% Relative Activity” value in data set [2] is recorded as 128%. Besides, in data set [6] (Mean of two animals), the AUC0-last stood at 30273.845 µg·h/mL and the “AUC0-∞” value was found to be 33039.046 µg·h/mL. Besides, in data set [6] (setting [9]), the AUC0-last was 28642.7714 µg·h/mL and 31904.9182 µg·h/mL; the “AUC0-∞” value was 31231.8587 µg·h/mL and 34846.2341 µg·h/mL. Moreover, the “reduction in tumor growth” value in data set [4] is recorded as roughly 64%.
